The test system of the first test is Puccinia recondita—PUCCRT. Kind of test: Brown Rust of Wheat, in vivo whole plant, 24 Hour Protectant.
Details: not given
`COCCC(=O)Oc1c(OC)ccnc1C(=O)Nc1ccc(C(=NOC)c2cccc(C(F)(F)F)c2)cc1` [Compound 708]: the “PUCCRT in vivo 1 Day Protectant” value is listed as “− (key: ++: at least 75-100% control of fungal infection; +: 25-74% control of fungal infection; −: <25% control of fungal infection)”.

Consider `CON=C(c1ccc(NC(=O)c2nccc(OC)c2OC(C)=O)cc1)c1cccc(C(F)(F)F)c1` [Compound 707], for which the “PUCCRT in vivo 1 Day Protectant” value is “+ (key: ++: at least 75-100% control of fungal infection; +: 25-74% control of fungal infection; −: <25% control of fungal infection)”.

The next test deals with Septoria tritici—SEPTTR. As to the kind of experiment: Leaf Blotch of Wheat, in vivo whole plant, 24 Hour Protectant.
Details: not given
Regarding `COCCC(=O)Oc1c(OC)ccnc1C(=O)Nc1ccc(C(=NOC)c2cccc(C(F)(F)F)c2)cc1` [Compound 708], the “SEPTTR in vivo 1 Day Protectant” value was “+ (key: ++: at least 75-100% control of fungal infection; +: 25-74% control of fungal infection; −: <25% control of fungal infection)”. Same read-out and setting: next, `CON=C(c1ccc(NC(=O)c2nccc(OC)c2OC(C)=O)cc1)c1cccc(C(F)(F)F)c1` [Compound 707]: “+ (key: ++: at least 75-100% control of fungal infection; +: 25-74% control of fungal infection; −: <25% control of fungal infection)”.

The next test has as its system Plasmopara viticola—PLASVI. As to the kind of experiment: whole plant or invertebrate. The class given is in vivo. To be noted: Plasmopara, 24 h, read-out: PLASVI in vivo 1 Day Protectant, 100 ppm, 24 hour protectant, grape; control of fungal infection vs untreated plants.
With `COc1ccnc(C(=O)NCC2COCCOCCOCCOCCO2)c1O` (stereo not drawn) [Compound 245], the pest or weed control at 100 ppm lay in the range of 25 to 74%. With `COc1ccnc(C(=O)NCC#CCCl)c1O` [Compound 239], the pest or weed control at 100 ppm is 25 to 74%. For the compound `COc1ccnc(C(=O)NC(C)c2ccc(Cl)cc2)c1O` (stereo not drawn) [Compound 246], the pest or weed control at 100 ppm was less than 25%.

As to `CC(NC(=O)c1ncccc1O)c1ccc(Cl)cc1` (stereo not drawn) [Compound 230], the pest or weed control at 100 ppm is less than 25%. The same measure, in the same setting: next, `COc1ccnc(C(=O)NC2CC(C)(C)C(OC)C(C)(C)C2)c1O` (stereo not drawn) [Compound 265]: 25 to 74%. Take `CCCCCCCCCNC(=O)c1ncccc1O` [Compound 201]: the pest or weed control at 100 ppm was less than 25%. On the same count and under the same terms, with `O=C(NCCCCc1ccccc1)c1ncccc1O` [Compound 234] the figure was 25 to 74%.

Staying with this test, now noted: Plasmopara, 24 h, read-out: PLASVI in vivo 1 Day Protectant, 100 ppm, grape, 24 hour protectant, % control of fungal infection vs untreated plants.
Consider `COCCC(=O)Oc1c(OC)ccnc1C(=O)N[C@H]1COC(=O)[C@H](Cc2ccccc2)[C@@H](OC(=O)C(C)C)[C@H](C)OC1=O` [Compound 658], for which the pest or weed control at 100 ppm is 25 to 74%. On to `COc1ccnc(C(=O)Nc2cccc(Sc3ccc(C(F)(F)F)cc3)c2)c1OC(C)=O` [Compound 710], for which the pest or weed control at 100 ppm is less than 25%. As to `COCCC(=O)Oc1c(OC)ccnc1C(=O)Nc1ccc(C(=O)Oc2cccc(C(F)(F)F)c2)cc1` [Compound 716], the pest or weed control at 100 ppm fell in the range of 25 to 74%.

`COc1ccnc(C(=O)N[C@H]2COC(=O)[C@H](Cc3ccccc3)[C@@H](OC(=O)C(C)C)[C@H](C)OC2=O)c1OC(=O)Cc1ccccc1` [Compound 648]: the pest or weed control at 100 ppm is less than 25%. On the same count and under the same terms, with `COc1ccnc(C(=O)N[C@H]2COC(=O)[C@H](Cc3ccccc3)[C@@H](OC(C)=O)[C@H](C)OC2=O)c1OC(C)=O` [Compound 596] the figure was 25 to 74%.

The test is the same for the next values; noted with them: Plasmopara, 24 h, read-out: PLASVI in vivo 1 Day Protectant, 100 ppm, grape, 24 hour protectant; control of fungal infection vs untreated plants.
Turning to `COc1cccc(Oc2ccccc2NC(=O)c2nccc(OC)c2O)c1` [Compound 428], the pest or weed control at 100 ppm was less than 25%.

As to `COc1ccnc(C(=O)NC(C(=O)OCC(C)C)C(C)OC(=O)C(C)Cc2ccccc2)c1O` (stereo not drawn) [Compound 360], the pest or weed control at 100 ppm fell in the range of 25 to 74%.

In the case of `COc1ccnc(C(=O)Nc2ccc(OCc3ccc(C(F)(F)F)cc3)cc2)c1O` [Compound 448], the pest or weed control at 100 ppm is less than 25%. On the same count and under the same terms, with `COc1ccnc(C(=O)N[C@H]2COC(=O)[C@H](Cc3ccccc3)[C@@H](OC(=O)/C=C(\C)CCC=C(C)C)[C@H](C)OC2=O)c1O` [Compound 396] the figure was less than 25%. On the same count and under the same terms, with `COc1ccnc(C(=O)Nc2ccccc2Oc2ccc(C)cc2)c1O` [Compound 411] the figure was less than 25%. On to `COc1ccnc(C(=O)N[C@H]2COC(=O)[C@H](Cc3ccccc3)[C@@H](OC(=O)c3ccccc3)[C@H](C)OC2=O)c1O` [Compound 394], for which the pest or weed control at 100 ppm is less than 25%. Same read-out and setting: next, `COc1ccnc(C(=O)NC2O[C@H](CO)[C@H]3OC(C)(C)O[C@@H]23)c1O` (stereo partly drawn) [Compound 329]: less than 25%.

Still in this test, the particulars now being: Plasmopara, 24 h, read-out: PLASVI in vivo 1 Day Protectant, grape plants, 100 ppm, 24 hour protectant; control of fungal infection vs untreated plants.
Consider `COc1ccc(C(C)NC(=O)c2ccncc2O)cc1` (stereo not drawn) [Compound 508], for which the pest or weed control at 100 ppm is 25 to 74%. On the same count and under the same terms, with `Cc1nc(O)c(C(=O)NC2CC(C)(C)CC(C)(C)C2)cc1Cl` [Compound 530] the figure was less than 25%; with `CC1(C)CC(NC(=O)c2nnc(O)nc2O)CC(C)(C)C1` [Compound 543], less than 25%; with `COc1ccnc(C(=O)Nc2ccc(Oc3cc(C(F)(F)F)ccn3)cc2)c1O` [Compound 461], less than 25%.

Regarding `CCCC[C@H]1C(=O)O[C@H](C)C(NC(=O)c2cccc(NC(=O)c3nccc(OC)c3O)c2O)C(=O)O[C@@H](C)[C@@H]1OC(=O)CC(C)C` (stereo partly drawn) [Compound 473], the pest or weed control at 100 ppm was less than 25%. With `CCOc1ccnc(C(=O)NC2COC(=O)[C@H](Cc3ccccc3)[C@@H](OC(=O)C(C)C)[C@H](C)OC2=O)c1O` (stereo partly drawn) [Compound 475], the pest or weed control at 100 ppm is less than 25%. Still for that read-out and setting: next, `Cc1ncc(C(=O)NC2CC(C)(C)CC(C)(C)C2)c(O)n1` [Compound 541]: less than 25%; `O=C(NC(Cc1ccccc1)c1ccccc1)c1nc(Br)ccc1O` (stereo not drawn) [Compound 491]: 25 to 74%; `CC(NC(=O)c1nc(Br)ccc1O)c1ccc(C(F)(F)F)cc1` (stereo not drawn) [Compound 488]: 25 to 74%.

In the case of `CC(C)C(=O)O[C@H]1[C@H](C)OC(=O)[C@@H](NC(=O)c2nnccc2O)COC(=O)[C@@H]1Cc1ccccc1` [Compound 532], the pest or weed control at 100 ppm lay within 25 to 74%. The same measure, in the same setting: next, `CC(NC(=O)c1ccncc1O)c1ccc(C(F)(F)F)cc1` (stereo not drawn) [Compound 510]: less than 25%.

The test system of a further test is Leptosphaeria nodorum—LEPTNO. Kind of test: Glume Blotch of Wheat, in vivo whole plant, 24 Hour Protectant.
Details: not given
Consider `COCCC(=O)Oc1c(OC)ccnc1C(=O)Nc1ccc(C(=NOC)c2cccc(C(F)(F)F)c2)cc1` [Compound 708], for which the “LEPTNO in vivo 1 Day Protectant” value was “+ (key: ++: at least 75-100% control of fungal infection; +: 25-74% control of fungal infection; −: <25% control of fungal infection)”. Regarding `CON=C(c1ccc(NC(=O)c2nccc(OC)c2OC(C)=O)cc1)c1cccc(C(F)(F)F)c1` [Compound 707], the “LEPTNO in vivo 1 Day Protectant” value is reported as “− (key: ++: at least 75-100% control of fungal infection; +: 25-74% control of fungal infection; −: <25% control of fungal infection)”.
